The supplement of paper PMC7125110
± gives the standard error. This sample is rich in variants without activity.

B1: glmS ribozyme (parent)
chain: AUAAAAGCGCCAGAACUACAGAAAUGUAGUUGACGAGGAGGAGGUUUAUCGAAUUUUCGGCGGAUGCCUCCAAA

Tests used:
Conditions in all cases: with glucosamine-6-phosphate
[1] = variants of: B1; test: self-cleavage kobs at 40 uM GlcN6P; higher = faster cleavage; RNA array
Procedure, shortened: (§1)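 Barcoded glmS ribozyme variants on sequenced MiSeq chips were transcribed in situ by E. coli RNA polymerase and tracked through a hybridised Cy3 probe at 37 °C. Glucosamine-6-phosphate (40 μM to 10 mM) in HEPES/KCl/Mg(OAc)2 buffer was flowed in, and tiles were imaged over ~14 h. Signals were normalised to baseline and to non-cleaving reference variants; per-tile medians were fit to one- or two-exponential decays to give kobs. kcat and KM came from weighted Michaelis–Menten fits across concentrations.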

[2] = variants of: B1; test: self-cleavage kobs at 640 uM GlcN6P; higher = faster cleavage; RNA array
Procedure, shortened: as §1

[3] = variants of: B1; test: self-cleavage kobs at 160 uM GlcN6P; higher = faster cleavage; RNA array
Procedure, shortened: as §1

[4] = variants of: B1; test: self-cleavage kobs at 10000 uM GlcN6P; higher = faster cleavage; RNA array
Procedure, shortened: as §1

[5] = variants of: B1; test: self-cleavage kobs at 2500 uM GlcN6P; higher = faster cleavage; RNA array
Procedure, shortened: as §1

Variant	self-cleavage kobs at 40 uM GlcN6P [1] [s⁻¹]	self-cleavage kobs at 640 uM GlcN6P [2] [s⁻¹]	self-cleavage kobs at 160 uM GlcN6P [3] [s⁻¹]	self-cleavage kobs at 10000 uM GlcN6P [4] [s⁻¹]	self-cleavage kobs at 2500 uM GlcN6P [5] [s⁻¹]
A36U C70A	3.96e-05 ± 1e-05	0.000143 ± 3.1e-05	4.33e-05 ± 1.3e-05	2.74e-05 ± 7.6e-06	–
G38C G63U	< 1e-05	–	–	–	–
A36C G37U A42C U49A	< 1e-05	–	–	< 1e-05	–
G40C U56C	< 1e-05	–	< 1e-05	5.45e-05 ± 8.6e-06	4.67e-05 ± 2e-05
G40C C67G	< 1e-05	–	< 1e-05	–	–
G37A G51A U55G G63U	< 1e-05	–	–	–	–
G41A G43U A53G C71G	< 1e-05	–	–	–	< 1e-05
G35A C61G U65G C67A U69G	6.66e-05 ± 2.3e-05	–	–	–	–
G38C G41U G60C	< 1e-05	–	–	–	–
A36C A39G G60U	< 1e-05	< 1e-05	–	–	< 1e-05
A36C G40U	< 1e-05	< 1e-05	–	< 1e-05	< 1e-05
C34A G59A	< 1e-05	–	< 1e-05	< 1e-05	< 1e-05
G38U G41U C61G	< 1e-05	–	–	< 1e-05	–
G37A U57C	< 1e-05	–	–	–	–
G35C U45C C67G C68A	0.00152 ± 0.00042	–	–	0.000566 ± 0.00018	–
A39U U69C	0.000261 ± 7.1e-05	–	–	0.0107 ± 0.0039	0.0075 ± 0.0032
G37U U57A	< 1e-05	–	–	< 1e-05	–
A39U G51A	< 1e-05	–	< 1e-05	< 1e-05	–
G37U G43C A48U G51A C70G	< 1e-05	–	–	–	< 1e-05

Variant	self-cleavage kobs at 40 uM GlcN6P [1] [s⁻¹]	self-cleavage kobs at 640 uM GlcN6P [2] [s⁻¹]	self-cleavage kobs at 160 uM GlcN6P [3] [s⁻¹]	self-cleavage kobs at 10000 uM GlcN6P [4] [s⁻¹]	self-cleavage kobs at 2500 uM GlcN6P [5] [s⁻¹]
G35U C70G	< 1e-05	< 1e-05	< 1e-05	–	< 1e-05
C34G A64G	< 1e-05	–	–	–	–
G41A A52U G59A	< 1e-05	< 1e-05	< 1e-05	–	< 1e-05
G37U G40U U45C	< 1e-05	–	–	–	–
G38U G41A C70U	< 1e-05	–	–	–	–
G38U U46G G60C	< 1e-05	< 1e-05	< 1e-05	–	< 1e-05
A39C G44A U47G G63C C67G	< 1e-05	–	–	< 1e-05	–
C34G U47A G62U	< 1e-05	< 1e-05	–	–	–
G41A G44C	< 1e-05	< 1e-05	–	–	–
A39U G63C	< 1e-05	< 1e-05	–	–	–
A39U G63U	< 1e-05	< 1e-05	< 1e-05	< 1e-05	–
A36G A53C	< 1e-05	–	–	< 1e-05	< 1e-05
C34A U49A	< 1e-05	< 1e-05	< 1e-05	< 1e-05	–
A39G C58G	< 1e-05	3.89e-05 ± 1.2e-05	–	0.000151 ± 2.3e-05	7.24e-05 ± 1.7e-05
C34U U55C	< 1e-05	< 1e-05	< 1e-05	< 1e-05	< 1e-05
C34U U55A	< 1e-05	–	< 1e-05	< 1e-05	–
C34G A39C G43C G66C	< 1e-05	–	–	< 1e-05	–
A36G A39U U69G	< 1e-05	–	–	< 1e-05	–
A36U G59A	< 1e-05	–	–	< 1e-05	< 1e-05

Variant	self-cleavage kobs at 40 uM GlcN6P [1] [s⁻¹]	self-cleavage kobs at 640 uM GlcN6P [2] [s⁻¹]	self-cleavage kobs at 160 uM GlcN6P [3] [s⁻¹]	self-cleavage kobs at 10000 uM GlcN6P [4] [s⁻¹]	self-cleavage kobs at 2500 uM GlcN6P [5] [s⁻¹]
C34A G43U C68A	< 1e-05	–	< 1e-05	–	–
A36U A52G C70A	5.42e-05 ± 1.4e-05	0.000171 ± 6.6e-05	–	–	–
G38C A53C	< 1e-05	–	< 1e-05	–	–
A39G C61G	< 1e-05	< 1e-05	< 1e-05	< 1e-05	< 1e-05
A39U C58U	< 1e-05	–	–	–	–
A39U U46G C58A	< 1e-05	–	–	–	–
G37U A53U U55A	< 1e-05	–	–	–	–
G37U G59U	< 1e-05	< 1e-05	–	–	–
G37U G59A	< 1e-05	< 1e-05	–	–	–
G37U U45A A52C C61A	< 1e-05	–	–	–	–
G40U G44C	< 1e-05	< 1e-05	< 1e-05	–	–
G40U A42C	< 1e-05	–	< 1e-05	–	–
G38U A48G U57G	< 1e-05	–	–	–	–
A39C G40U U49G C70A C71G	< 1e-05	–	–	< 1e-05	–
G35U U54C U56G A64U C70U	< 1e-05	–	–	–	–
G40A A42G C61G	< 1e-05	–	–	< 1e-05	–
G35A U57G	< 1e-05	–	–	–	–
G38A G41A C68A	< 1e-05	–	–	–	–
G41A C61G C71U	< 1e-05	–	–	–	–
